Experimental data published in the supplement of paper PMC10338343.
± gives the standard deviation. The full ranking holds about 3,700 sequences; the median of “pre-steady-state target cleavage rate” is about 0.02, and the highest 2% start at about 0.23. This is a selection; strong and weak results do not stand in their true shares.

tested on: MILI (PIWIL2) piRISC loaded with Kctd7 piRNA (26 nt); assay: pre-steady-state target cleavage rate (min^-1); MIWI and MILI are mouse PIWI proteins and EfPiwi is from a freshwater sponge; tags in brackets are library labels; higher = faster piRNA-guided slicing of the target; conditions: guide: Kctd7 piRNA 5'p-UGUUAAUCUCUCAGAGAAGGUGACAG; auxiliary factor: 500 nM mouse GTSF1
Procedure, shortened: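 In this Cleave-'n-Seq assay, uncleaved targets were sequenced and normalised to depth and to weakly complementary targets. They came from a transcribed, DNA-blocked target RNA library […] mixed with 1 nM active affinity-purified piRISC carrying one synthetic guide, with or without 500 nM GTSF1 partner protein, in HEPES–potassium acetate buffer at 33 °C for 0–8 or 0–960 min. After three trials were pooled and k3 was capped at 0.0001 min^-1, the pre-steady-state cleavage rate was obtained from a burst-and-steady-state fit.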
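Further: 1 nM active piRISC with 0.1 nM target library at 33 °C single turnover.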

Row | Sequence | pre-steady-state target cleavage rate
1 | UAGUGUGUCACCUUCUCUGUGAGAUUAACA | 0.0704 ± 0.011
2 | UAGUGAGUCUCCUACUCUGAGAGAUUAACA | 0.101 ± 0.0099
3 | UAGUGAGUCACCUUCGCUGAGAGAUUAACA | 0.151 ± 0.023
4 | UAGUGACAGUCCUUGCUCUGAGAGAUUAACA | 0.0199 ± 0.0059
5 | UAGUGACACACCUACUCUGACAGAUUAACA | 0.0136 ± 0.0053
6 | UAGUCUCUCACCUUCUCUGAGACAUUAACA | 0.0859 ± 0.0086
7 | UAGUGUGAGACCUUCUCUGAGAGAUUAACA | 0.101 ± 0.0091
8 | UAGUGUGUCACCUUCUGUGACAGAUUAACA | 0.0357 ± 0.015
9 | UAGUGUGUCUACCUUCUCUGAGAGAUUAACA | 0.0403 ± 0.0089
10 | UAGUGAGUCAACCUUCUCUGAGAGAUUAACA | 0.0964 ± 0.015
11 | UAGUCUGACACCUUCUGUGAGAGAUUAACA | 0.121 ± 0.011
12 | UAGUGUGUCACCUUCUCUGAGACAUAAACA | 0.0193 ± 0.0083
13 | UAGUGACAGUGCUUCACUGAGAGAUUAUCA | 0.0073 ± 0.0034
14 | UAGUGUGUCAGGUUCUCUGAGAGAUUAAGA | 0.0334 ± 0.0089
15 | UAGUGUGUCACCAUCUCUGAGAGAAUAACA | 0.132 ± 0.04
16 | UAGUGACAGUCCUUCUCUGUGAGUUUAACA | 0.00949 ± 0.0025
17 | UAGUGUGUCACCUACUCAGAGAGAUUAACA | 0.082 ± 0.008
18 | UAGUGACACACCUUCUCAGAGACAUUAACA | 0.0541 ± 0.011
19 | UAGUGACAGUGCUUCUCUGAGAGAUUUACA | 0.0148 ± 0.0037
20 | UAGUGACUCACCUACUCUGAGAGAUUAUGA | 0.0205 ± 0.0076
21 | UAGUGACAGACCUCCUCUGAGAGAUUAACA | 0.146 ± 0.015
22 | UAGUGACAGUCCUUCAGUGAGAGAUUAACA | 0.0136 ± 0.0045
23 | UAGUGACACACCUUCUCUGAGAGUUUAACA | 0.139 ± 0.028
24 | UAGUGACAGUGCUUCUCUGAGAGUUAACA | < 0.0001

Row | Sequence | pre-steady-state target cleavage rate
25 | UAGUGACAGUCCUUCUAUGAGAGAUUAACA | 0.0377 ± 0.013
26 | UAGUGAGUCACCAUCUCUGAGAGAUAAACA | 0.0772 ± 0.028
27 | UAGUCUGUCAGCUACUCUGAGAGAUUAACA | 0.153 ± 0.007
28 | UAGUGACAGUGCUUCUCUGAGAGAUAACA | < 0.0001
29 | UAGUGAGUCACCUUCUAUGAGAGAUUAACA | 0.112 ± 0.016
30 | UAGUGAGUCACCUUGUGUGAGAGAUUAACA | 0.0842 ± 0.015
31 | UAGUGAGUCACCUUCUCUAGAGAUUAACA | 0.0134 ± 0.0056
32 | UAGUCUGUCAGCUUCUGUGAGAGAUUAACA | 0.13 ± 0.0088
33 | UAGUGACAGUCCUUCUCUGAGAGAUUAGCA | 0.0121 ± 0.0037
34 | UAGUGACUCUCGUUCUCUGAGAGAUUAACA | 0.0994 ± 0.013
35 | UAGUGACACACCUUCUCUGAAAGAUUAACA | 0.0739 ± 0.0057
36 | UAGUCUGUCACCUUCACUGAGUGAUUAACA | 0.00739 ± 0.0041
37 | UAGUGACUCACCUUCUCUGAGAGAUCAACA | 0.181 ± 0.031
38 | UAGUGAGACUCCUUCUCUGAGAGAUUAACA | 0.156 ± 0.0066
39 | UAGUGACAGUGCUUCUCAGACAGAUUAACA | 0.00299 ± 0.0027
40 | UAGUCACACACCUUCUCUGAGAGAUUAAGA | 0.187 ± 0.033
41 | UAGUGACUCACCUUCUCUGAGGGAUUAACA | 0.0864 ± 0.011
42 | UAGUGACAGUCCUUCUCUGAGGGAUUAACA | 0.0101 ± 0.0035
43 | UAGUGACAGUCCUUGUCUGAGAGAUAAACA | 0.00456 ± 0.0042
44 | UAGUGACAGACCUAGUCUGAGAGAUUAACA | 0.0533 ± 0.012
45 | UAGUGACUCACCUUCUCUGAGAGAUAAUCA | 0.0548 ± 0.019
46 | UAGUCUGUCACGUUGUCUGAGAGAUUAACA | 0.115 ± 0.01
47 | UAGUGACAGUCCUUGUCUGAGAGAUUAACA | 0.0364 ± 0.0077
48 | UAGUGACUCUCCUUCUCUGAGAGAAUAACA | 0.0117 ± 0.0045

Row | Sequence | pre-steady-state target cleavage rate
49 | UAGUGAGUCACGUUCUCUGAGAGAUUAUCA | 0.0809 ± 0.019
50 | UAGUGACAGUGCUUGUGUGAGAGAUUAACA | 0.0111 ± 0.0031
51 | UAGUGUGUCACCUUCUCUGAGAGAUUAGCA | 0.117 ± 0.028
52 | UAGUGUGACACCUUCUCUGUGAGAUUAACA | 0.044 ± 0.007
53 | UAGUCUGUCACCUUCAUCUGAGAGAUUAACA | 0.204 ± 0.052
54 | UAGUGACACACCUUCUCUGAGAGAUUGAACA | 0.176 ± 0.022
55 | UAGUGACUCACCUUCUCAGAGAGAAUAACA | 0.00443 ± 0.0038
56 | UAGUGACAGUCCUUCUCUGCGAGAUUAACA | 0.0166 ± 0.005
57 | UAGUGACAGUGCUUCUCUGAGACAUUAACA | 0.00255 ± 0.0024
58 | UAGUCUGUCACCUUCUCUGUGAGAUUAACA | 0.0688 ± 0.0091
59 | UAGUGACACCCUUCUCUGAGAGAUUAACA | 0.085 ± 0.014
60 | UAGUGACAGUGGUUCACUGAGAGAUUAACA | 0.0069 ± 0.002
61 | UAGUGACAGUGCUUCUCUUAGAGAUUAACA | 0.0209 ± 0.0046
62 | UAGUCUGUCACCUUCUUUGAGAGAUUAACA | 0.259 ± 0.019
63 | UAGUGAGUCUCCUUCUCUGACAGAUUAACA | 0.0611 ± 0.0087
64 | UAGUGUGUCACCUUCUCUGAAAGAUUAACA | 0.0569 ± 0.011
65 | UAGUGAGUCACCUUCUCAGUGAGAUUAACA | 0.0225 ± 0.0044
66 | UAGUCUGUACACCUUCUCUGAGAGAUUAACA | 0.193 ± 0.011
67 | UAGUGACUCACGUUCUCUGACAGAUUAACA | 0.00336 ± 0.0024
68 | UAGUGACAGUGCUUCUCUCAGAGAUUAACA | 0.0108 ± 0.0029
69 | UAGUGACAGACCUUCACUCAGAGAUUAACA | 0.0105 ± 0.005
70 | UAGUGUGUCACCUUCUCUGGGAGAUUAACA | 0.17 ± 0.016
71 | UAGUGUGUCACCUUCUCUGAGAAUUAACA | 0.0848 ± 0.036
72 | UAGUGUGUCACCUUCACUGAGAGAUUAAGA | 0.0546 ± 0.021
